# Publication PMC12820563, “FoxP3 forms a head-to-head dimer in vivo and stabilizes its multimerization on adjacent microsatellites”
# This is one part of the list.
# Biological target: T1, MBP-FoxP1dN (Mus musculus, UniProt P58462 326-579)
# T1 sequence: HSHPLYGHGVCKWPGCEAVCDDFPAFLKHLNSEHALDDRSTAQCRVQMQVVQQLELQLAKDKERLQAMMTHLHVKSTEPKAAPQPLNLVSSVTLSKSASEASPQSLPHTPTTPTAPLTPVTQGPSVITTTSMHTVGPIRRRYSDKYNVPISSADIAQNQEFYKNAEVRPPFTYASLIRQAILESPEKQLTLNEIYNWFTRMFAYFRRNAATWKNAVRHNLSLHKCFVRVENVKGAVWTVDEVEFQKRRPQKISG
# Assay: PD-seq (MBP pull-down with sequencing); 20 mM Tris-HCl pH 7.5, 100 mM NaCl, 1.5 mM MgCl2, 0.4 uM protein, 0.1 uM dsDNA library, 30 min, room temperature, amylose pull-down; high values mean tight binding
# Settings: protein: recombinant; tags: His6-MBP; chain copies: 2; dsDNA, one strand shown
# How it was run: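 Binding is the reads-per-million enrichment of pull-down relative to input, pooled across replicates. For this, 0.4 µM His6-MBP-tagged mouse FoxP3 or FoxP1 fragment lacking the N-terminus, made in E. coli, was incubated with 0.1 µM Klenow-filled double-stranded degenerate DNA library for 30 min at room temperature in Tris pH 7.5 buffer with NaCl and MgCl2. Complexes bound to amylose resin were washed three times before proteinase K released the DNA for PCR barcoding and Illumina sequencing.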
row,Sequence,binding signal
1,GATGATTGTTCTCCCAGCTGATGAATTACCATGTTCGAGTAAACAAATTTTCCTAATCTTTCTGTTCAAGCGCCATCTAC,1.02 RPM ratio (pull-down/input)
2,GATGATTGTTCTCCCAGCTGATGAATTCGGCGGGTCGAGTAAACAAATTTTCCTAATCTTTCTGTTCAAGCGCCATCTAC,0.749 RPM ratio (pull-down/input)
3,GATGATTGTTCTCCCAGCTGATGAATTGTGGGTATCGAGTAAACAAATTTTCCTAATCTTTCTGTTCAAGCGCCATCTAC,1.04 RPM ratio (pull-down/input)
4,GATGATTGTTCTCCCAGCTGATGAATTTTACGGTTCGAGTAAACAAATTTTCCTAATCTTTCTGTTCAAGCGCCATCTAC,0.917 RPM ratio (pull-down/input)
5,GATGATTGTTCTCCCAGCTGATGAATTTCGTCCTTCGAGTAAACAAATTTTCCTAATCTTTCTGTTCAAGCGCCATCTAC,0.84 RPM ratio (pull-down/input)
6,GATGATTGTTCTCCCAGCTGATGAATTTCTAAGTTCGAGTAAACAAATTTTCCTAATCTTTCTGTTCAAGCGCCATCTAC,0.892 RPM ratio (pull-down/input)
7,GATGATTGTTCTCCCAGCTGATGAATTTTAGCTGTCGAGTAAACAAATTTTCCTAATCTTTCTGTTCAAGCGCCATCTAC,0.941 RPM ratio (pull-down/input)
8,GATGATTGTTCTCCCAGCTGATGAATTTGTCCCATCGAGTAAACAAATTTTCCTAATCTTTCTGTTCAAGCGCCATCTAC,1.05 RPM ratio (pull-down/input)
9,GATGATTGTTCTCCCAGCTGATGAATTAATCACGTCGAGTAAACAAATTTTCCTAATCTTTCTGTTCAAGCGCCATCTAC,1.03 RPM ratio (pull-down/input)
10,GATGATTGTTCTCCCAGCTGATGAATTCGCCGTATCGAGTAAACAAATTTTCCTAATCTTTCTGTTCAAGCGCCATCTAC,0.932 RPM ratio (pull-down/input)
11,GATGATTGTTCTCCCAGCTGATGAATTCCTGTTGTCGAGTAAACAAATTTTCCTAATCTTTCTGTTCAAGCGCCATCTAC,2.34 RPM ratio (pull-down/input)
12,GATGATTGTTCTCCCAGCTGATGAATTTGAATGTTCGAGTAAACAAATTTTCCTAATCTTTCTGTTCAAGCGCCATCTAC,0.899 RPM ratio (pull-down/input)
13,GATGATTGTTCTCCCAGCTGATGAATTGTGGGTCTCGAGTAAACAAATTTTCCTAATCTTTCTGTTCAAGCGCCATCTAC,0.967 RPM ratio (pull-down/input)
14,GATGATTGTTCTCCCAGCTGATGAATTGCTAGAGTCGAGTAAACAAATTTTCCTAATCTTTCTGTTCAAGCGCCATCTAC,0.985 RPM ratio (pull-down/input)
15,GATGATTGTTCTCCCAGCTGATGAATTCTATGCCTCGAGTAAACAAATTTTCCTAATCTTTCTGTTCAAGCGCCATCTAC,0.89 RPM ratio (pull-down/input)
16,GATGATTGTTCTCCCAGCTGATGAATTACCGATGTCGAGTAAACAAATTTTCCTAATCTTTCTGTTCAAGCGCCATCTAC,1.08 RPM ratio (pull-down/input)
17,GATGATTGTTCTCCCAGCTGATGAATTAGCTACGTCGAGTAAACAAATTTTCCTAATCTTTCTGTTCAAGCGCCATCTAC,0.902 RPM ratio (pull-down/input)
18,GATGATTGTTCTCCCAGCTGATGAATTACTGCTCTCGAGTAAACAAATTTTCCTAATCTTTCTGTTCAAGCGCCATCTAC,0.948 RPM ratio (pull-down/input)
19,GATGATTGTTCTCCCAGCTGATGAATTGCACACATCGAGTAAACAAATTTTCCTAATCTTTCTGTTCAAGCGCCATCTAC,1.31 RPM ratio (pull-down/input)
20,GATGATTGTTCTCCCAGCTGATGAATTATGCGTATCGAGTAAACAAATTTTCCTAATCTTTCTGTTCAAGCGCCATCTAC,1.13 RPM ratio (pull-down/input)

row,Sequence,binding signal
1,GATGATTGTTCTCCCAGCTGATGAATTTCGATGCTCGAGTAAACAAATTTTCCTAATCTTTCTGTTCAAGCGCCATCTAC,0.936 RPM ratio (pull-down/input)
2,GATGATTGTTCTCCCAGCTGATGAATTCCACATATCGAGTAAACAAATTTTCCTAATCTTTCTGTTCAAGCGCCATCTAC,0.973 RPM ratio (pull-down/input)
3,GATGATTGTTCTCCCAGCTGATGAATTCCGCTCTTCGAGTAAACAAATTTTCCTAATCTTTCTGTTCAAGCGCCATCTAC,0.82 RPM ratio (pull-down/input)
4,GATGATTGTTCTCCCAGCTGATGAATTGCCTAACTCGAGTAAACAAATTTTCCTAATCTTTCTGTTCAAGCGCCATCTAC,0.992 RPM ratio (pull-down/input)
5,GATGATTGTTCTCCCAGCTGATGAATTCCCTAATTCGAGTAAACAAATTTTCCTAATCTTTCTGTTCAAGCGCCATCTAC,0.927 RPM ratio (pull-down/input)
6,GATGATTGTTCTCCCAGCTGATGAATTGCTAATCTCGAGTAAACAAATTTTCCTAATCTTTCTGTTCAAGCGCCATCTAC,1.11 RPM ratio (pull-down/input)
7,GATGATTGTTCTCCCAGCTGATGAATTTCTACAATCGAGTAAACAAATTTTCCTAATCTTTCTGTTCAAGCGCCATCTAC,1.18 RPM ratio (pull-down/input)
8,GATGATTGTTCTCCCAGCTGATGAATTGTATTGTTCGAGTAAACAAATTTTCCTAATCTTTCTGTTCAAGCGCCATCTAC,2.26 RPM ratio (pull-down/input)
9,GATGATTGTTCTCCCAGCTGATGAATTACGTGTCTCGAGTAAACAAATTTTCCTAATCTTTCTGTTCAAGCGCCATCTAC,1.01 RPM ratio (pull-down/input)
10,GATGATTGTTCTCCCAGCTGATGAATTCATTCACTCGAGTAAACAAATTTTCCTAATCTTTCTGTTCAAGCGCCATCTAC,0.891 RPM ratio (pull-down/input)
11,GATGATTGTTCTCCCAGCTGATGAATTTGATGGGTCGAGTAAACAAATTTTCCTAATCTTTCTGTTCAAGCGCCATCTAC,0.768 RPM ratio (pull-down/input)
12,GATGATTGTTCTCCCAGCTGATGAATTCAAAATGTCGAGTAAACAAATTTTCCTAATCTTTCTGTTCAAGCGCCATCTAC,0.941 RPM ratio (pull-down/input)
13,GATGATTGTTCTCCCAGCTGATGAATTTGTGATCTCGAGTAAACAAATTTTCCTAATCTTTCTGTTCAAGCGCCATCTAC,1.08 RPM ratio (pull-down/input)
14,GATGATTGTTCTCCCAGCTGATGAATTCTGCACGTCGAGTAAACAAATTTTCCTAATCTTTCTGTTCAAGCGCCATCTAC,0.899 RPM ratio (pull-down/input)
15,GATGATTGTTCTCCCAGCTGATGAATTAATTCTCTCGAGTAAACAAATTTTCCTAATCTTTCTGTTCAAGCGCCATCTAC,0.881 RPM ratio (pull-down/input)
16,GATGATTGTTCTCCCAGCTGATGAATTCAAATCTTCGAGTAAACAAATTTTCCTAATCTTTCTGTTCAAGCGCCATCTAC,0.864 RPM ratio (pull-down/input)
17,GATGATTGTTCTCCCAGCTGATGAATTGCTATGATCGAGTAAACAAATTTTCCTAATCTTTCTGTTCAAGCGCCATCTAC,1.06 RPM ratio (pull-down/input)
18,GATGATTGTTCTCCCAGCTGATGAATTGTTCTAGTCGAGTAAACAAATTTTCCTAATCTTTCTGTTCAAGCGCCATCTAC,1.19 RPM ratio (pull-down/input)
19,GATGATTGTTCTCCCAGCTGATGAATTGTGCAGGTCGAGTAAACAAATTTTCCTAATCTTTCTGTTCAAGCGCCATCTAC,0.921 RPM ratio (pull-down/input)
20,GATGATTGTTCTCCCAGCTGATGAATTGTAATATTCGAGTAAACAAATTTTCCTAATCTTTCTGTTCAAGCGCCATCTAC,1.19 RPM ratio (pull-down/input)
